# Assay results published in publication PMC4242493.
# This is one part of the list. The list includes weakly bound sequences.
# Biological target: MaxL homodimer (UniProt P61244)
# Assay: universal protein-binding microarray (PBM)
# Settings: PBS-based mixture, 10 nM His-tagged protein dimer, 2% milk, 200 ng/uL BSA, 50 ng/uL salmon testes DNA, 0.02% TX-100; detection with Alexa 488 anti-His …; high values mean tight binding; most listed sequences are background and not binding sites; double strand, one strand shown
# Sequence of UniProt P61244 (P61244 whole entry): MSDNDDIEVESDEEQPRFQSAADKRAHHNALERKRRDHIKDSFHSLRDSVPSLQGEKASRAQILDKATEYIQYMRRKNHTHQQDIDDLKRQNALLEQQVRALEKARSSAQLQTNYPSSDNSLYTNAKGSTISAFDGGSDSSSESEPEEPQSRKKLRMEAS
row,Sequence,binding signal (normalized occupancy)
1,TCTGAGCA,0.073
2,CCTCACTA,0.08
3,CCCAACCC,0.0752
4,CAGGTGAC,0.0878
5,TGGCGGAA,0.0725
6,GAATAGCC,0.0688
7,ACACGAGT,0.0979
8,CGCGCCGA,0.0721
9,AGACTACA,0.0772
10,AACATCAA,0.0812
11,GCCAGTCC,0.0721
12,CTTCGGGC,0.0721
13,GCGCGAAA,0.0771
14,TCCTGCAA,0.0703
15,CAACATGG,0.0932
16,TTGTAAAA,0.0743
17,AAAAATAG,0.0772
18,ACTTCTAA,0.0705
19,ACCCGGGT,0.0716
20,CTAAGCAA,0.0729
21,GTATAGCA,0.0777
22,ATATTTAC,0.0787
23,CCCCTTCC,0.0746
24,CCGCTTCA,0.067
25,ATCTGAAA,0.0735

row,Sequence,binding signal (normalized occupancy)
1,ACATTGAG,0.0809
2,CTTATCAC,0.075
3,AGCAAGTG,0.0753
4,AACTAATC,0.074
5,ATAGGGTC,0.078
6,ACACGATC,0.0822
7,CGAGCCAA,0.0691
8,GATTCTTA,0.0756
9,CGAGTCAC,0.076
10,GAAAATCA,0.0778
11,ACACGTTG,0.128
12,CTAAAAAC,0.0747
13,CGTTAGTC,0.0712
14,CATCTAAA,0.078
15,GTGCCACA,0.0818
16,TAATGTAA,0.0864
17,GACGGTAA,0.0742
18,CGTTACGC,0.0704
19,GTTCAAAC,0.0726
20,ATAAGGCA,0.0783
21,AGTAGACG,0.0773
22,GCGAAGGA,0.069
23,CCTTTGAG,0.0735
24,CGCATAAG,0.0761
25,CACATCAC,0.0848

row,Sequence,binding signal (normalized occupancy)
1,GCATGTTA,0.0976
2,AGCGTTAT,0.0808
3,GCCGTATA,0.0769
4,CCACATGA,0.134
5,TTGTACAA,0.0755
6,CGGTACAC,0.0815
7,GCGTAGCA,0.0754
8,TGCCTCAA,0.0739
9,AATTAAAA,0.0682
10,ATTATGGG,0.0828
11,CACGCACC,0.0913
12,ATTTGCTA,0.0767
13,ACAGCCGG,0.0693
14,CAATAAAA,0.0779
15,ACTGCCAT,0.0804
16,ATATCGCG,0.0757
17,GGCCAGCC,0.0687
18,ACTGGCGC,0.07
19,CTTAGCTA,0.0685
20,TGAGGGCA,0.0748
21,CGTGTCAA,0.0866
22,AGCTGATC,0.0718
23,CGTTTGTC,0.0781
24,AGCTCTAC,0.074
25,ACAATTTC,0.0747

row,Sequence,binding signal (normalized occupancy)
1,TGCCTACA,0.0783
2,GATGTGGA,0.0847
3,CCGTCTCA,0.0725
4,ACGTAAGC,0.0775
5,AGGGGCAG,0.0704
6,GGCGGAAC,0.0701
7,CCGGATAC,0.0761
8,ACCGCCGC,0.0717
9,AACCCACC,0.0807
10,CCCAGACA,0.0761
11,ATTTGATA,0.0826
12,AGGTAATA,0.076
13,CCCGACGG,0.0682
14,GATTGACA,0.0783
15,TACGATAA,0.08
16,AAGCAAAC,0.074
17,GTTCGGGA,0.071
18,ACTCTGCA,0.0713
19,AGGATGCG,0.0771
20,AAACACCA,0.0788
21,CGGTCTCC,0.0734
22,ACGTTTGA,0.0872
23,CGGGCTGA,0.0683
24,GTCTTCAC,0.0747
25,TAATCAAA,0.0738

row,Sequence,binding signal (normalized occupancy)
1,CCGATGAC,0.0747
2,GGCGGACA,0.0743
3,CATTAGTC,0.075
4,CCTGAGAA,0.076
5,GCTTATAC,0.0806
6,GCATCGGC,0.072
7,CGGAGTAG,0.0682
8,ACCTTTTC,0.0755
9,GTCATTCA,0.0795
10,ATGATGAG,0.0884
11,ACTTAGGC,0.0776
12,ACCTGTTC,0.079
13,ACGGACGA,0.0716
14,CAGAGGCC,0.0686
15,ATCGCAGC,0.069
16,GTGGGGAA,0.0843
17,ACGCACGA,0.091
18,AGCTATAT,0.0735
19,GTCTTCGA,0.0675
20,GACGATCC,0.077
21,TCCAGTCA,0.0749
22,TGACGGCA,0.0756
23,TCGTCAGA,0.0695
24,GATTACAC,0.0851
25,GCATAAGA,0.0799

row,Sequence,binding signal (normalized occupancy)
1,GCGCGGGA,0.0774
2,ACGCTGCA,0.0799
3,AACCTTAA,0.073
4,ACGAGAGG,0.0776
5,TCATCCAA,0.0765
6,AGTCTGGA,0.0718
7,CGCAACTA,0.0738
8,CATCCTAA,0.0751
9,ATCAACGG,0.0738
10,CACCCCGA,0.0805
11,GGTGATTA,0.0785
12,AATAAGGA,0.0732
13,GCATCAGA,0.0785
14,GCCAAGGA,0.0765
15,ACACGCCC,0.0863
16,AAGGTGAC,0.0729
17,CGTACCGA,0.0728
18,ATCTCCCG,0.0753
19,TAGGGGAA,0.0817
20,GAGACGGA,0.07
21,AGCTCGGG,0.0612
22,CCAAACTC,0.0694
23,TCTTCTAA,0.0702
24,CCACTGGG,0.0736
25,TAATGTGA,0.0848

row,Sequence,binding signal (normalized occupancy)
1,ACGGGATA,0.0871
2,AAACCGGG,0.0705
3,AAACGACC,0.0727
4,GGAGGAAC,0.0791
5,CAACCGCA,0.0728
6,CATGAAGC,0.0755
7,TAGAGAGA,0.071
8,CATCTTCC,0.0775
9,CATAACTC,0.0771
10,CGACTGGA,0.0706
11,CCGAGAAA,0.071
12,ATCGTCCA,0.0745
13,AGTATCTA,0.0824
14,ATGAGTTC,0.0819
15,GCTCTTCC,0.0706
16,CGGAGGGA,0.0665
17,ATGTCTGC,0.0782
18,AAATCTAT,0.0777
19,GTAGGGTA,0.0807
20,GGAGTTAC,0.075
21,GTCTATCA,0.0857
22,CTCCGTCA,0.0718
23,CCTACTAG,0.0712
24,AGGTCTCA,0.074
25,CACGAGAG,0.0911

row,Sequence,binding signal (normalized occupancy)
1,GGGGCTCA,0.0743
2,ACCAGCGC,0.0713
3,AGCTAGAG,0.0694
4,AGGGCTAT,0.0761
5,ACGGGCCC,0.0639
6,ACAACCTA,0.076
7,ACGGCGAC,0.0651
8,GGGAGCGA,0.0724
9,AGTCTCAA,0.0716
10,CCTAGAAG,0.0686
11,GCTATAGA,0.0771
12,AAAACCCC,0.0798
13,ACAGTAAT,0.0765
14,GCGGTAGA,0.0771
15,ATACCCAT,0.0837
16,AACGATCC,0.0787
17,CGGGGGAC,0.0762
18,GATCGTTA,0.0767
19,CGTGCGAA,0.0817
20,TATTCCCA,0.0758
21,CCGGTGAG,0.0746
22,CTTCTACC,0.0705
23,AACAGATA,0.0792
24,TCGAACAA,0.0689
25,GAGCAAAC,0.0788

row,Sequence,binding signal (normalized occupancy)
1,CGGAAGCA,0.0716
2,CAGCCATG,0.0844
3,AATATATG,0.0848
4,GGGCGAAA,0.068
5,ACGCTAGC,0.0727
6,AACACCTC,0.0797
7,ATCTGCTG,0.0748
8,CGTTGACA,0.0797
9,CCCTTAGC,0.0721
10,AGTCTCCG,0.07
11,CAATGTGG,0.097
12,CCGTCATC,0.0727
13,CGTTCACC,0.0783
14,TGAAGGCA,0.0752
15,TGACCAAA,0.0716
16,CTAAACGA,0.0709
17,ACCCACAT,0.0932
18,CGCCAAGC,0.0736
19,AAGTATAG,0.0813
20,CCCTAGAC,0.0788
21,ACTGTTCG,0.0699
22,CCCTGCCA,0.0784
23,ACATGGGA,0.0901
24,GCGGCATA,0.0753
25,AAGATGCA,0.0771

row,Sequence,binding signal (normalized occupancy)
1,CAACCGTG,0.079
2,CTCGTCGA,0.0659
3,CGTACTCA,0.0817
4,CGCATTGC,0.08
5,ACGCGGAG,0.076
6,AGTTGCGG,0.0665
7,AGAGCCTG,0.0676
8,CCTGTCAG,0.0719
9,CGTACAGC,0.0733
10,AGAAGCCA,0.0721
11,AACGAGAC,0.075
12,CAAAAGAA,0.0715
13,GATTGATA,0.0797
14,CCGACCAA,0.0687
15,GGGGATCA,0.0794
16,CCTTAACG,0.0765
17,CTTTTGGC,0.0694
18,AATCTTTG,0.0726
19,TGCGCACA,0.0804
20,CGGACGAC,0.0716
21,AGCTGGCC,0.0664
22,ATGTGGCA,0.087
23,GCGTGGAC,0.0976
24,GAACCCTA,0.0781
25,CAAGCTCG,0.0644

row,Sequence,binding signal (normalized occupancy)
1,GACATACC,0.0783
2,CATTTGGG,0.0756
3,AGAAATAA,0.0763
4,CTTTAGTC,0.0713
5,AGTGATGC,0.075
6,ACTTGTCT,0.0716
7,GCGGGTAC,0.0732
8,GGCACGTA,0.0814
9,CAGCAAGG,0.0734
10,ATTCGACG,0.0735
11,CTAATTGA,0.0722
12,CAGAACAG,0.0724
13,ACATTCGG,0.0816
14,CGTTGCCC,0.0707
15,GAAGGCGC,0.0709
16,GCTGACTA,0.0763
17,CTCTTAAG,0.0731
18,ATAAGCTA,0.074
19,TCACCTGA,0.0809
20,CACAAGTA,0.0831
21,TACGCGTA,0.0797
22,CTGCTCAC,0.0763
23,CAAACCCC,0.0805
24,ACTATCGG,0.0728
25,ACTCCCAC,0.08

row,Sequence,binding signal (normalized occupancy)
1,AATCCTTG,0.079
2,TCAATGGA,0.0734
3,CTATCATA,0.0872
4,CGGGAGCA,0.0676
5,CAGAGCCG,0.0668
6,ATCGACCC,0.0797
7,CATGAGCC,0.0857
8,TCGGCAGA,0.0678
9,AGAGGTGA,0.0713
10,CGTGCACC,0.095
11,GTAGGGCA,0.0716
12,ATGATTGA,0.0876
13,CGCTTGAC,0.0693
14,ATTAGGCC,0.0684
15,AAAACGCA,0.0753
16,AAGATCCC,0.0715
17,TGGGCTAA,0.0686
18,CTAATAAG,0.076
19,GTCCTGCA,0.0732
20,GGGGCGAA,0.0746
21,GTTCTACA,0.0827
22,CGGTCGGA,0.0734
23,AGCGGGAG,0.075
24,CGAATCCC,0.075
25,TGATAACA,0.0843

row,Sequence,binding signal (normalized occupancy)
1,TCACATCA,0.0817
2,CAACTGTC,0.0726
3,TCTTGACA,0.0744
4,GTGAAACA,0.0781
5,CCAGGGCA,0.0702
6,CGAGGCGA,0.0704
7,ACGACGGA,0.0742
8,CAAATATC,0.0777
9,AACATGAA,0.0878
10,TAAGTCCA,0.0677
11,CCGGTTAG,0.0736
12,TATTAATA,0.0848
13,CCTAGAAA,0.0717
14,CTTTAAAA,0.0708
15,GTTCAATA,0.0838
16,GTAACACA,0.0828
17,TAGGGATA,0.079
18,CCCGACGC,0.0707
19,ACGGCCTC,0.0653
20,TTATAAAA,0.0756
21,TGTTAGAA,0.082
22,CGGCAACG,0.074
23,CTCCCGGA,0.0662
24,CTTGCCGC,0.0715
25,GCAGTGGA,0.0724

row,Sequence,binding signal (normalized occupancy)
1,TAGAAGGA,0.0744
2,TGAAGCAA,0.0784
3,CTTAGTTC,0.0705
4,AACAATTG,0.0699
5,GAGATGGC,0.0747
6,GCCCCGCA,0.075
7,GCAACTGA,0.0721
8,GTTCGAAA,0.0748
9,CGGAAAAG,0.0691
10,ATAGTTAC,0.0811
11,TAGGATCA,0.0832
12,CCCCAGGC,0.0696
13,CTTAAGAC,0.0718
14,CAGCATAA,0.0808
15,AACCTAGC,0.0694
16,ACAGCCCT,0.0731
17,ATGCGGAG,0.0844
18,ATACCAGC,0.076
19,ACCTGTCG,0.0794
